In all, about 370,000 compounds went through this assay and about 150 (0.041%) were called active. This list was built around the results that the source calls inconclusive (neither active nor inactive); the mix of calls is not that of the screen. Calls come from the whole dose curve; as a rule, active = well fitted inhibition curve with a large enough effect; inconclusive = small, poorly fitted or top-dose-only effect; inactive = flat fitted curve, though single readings scatter. No potency is given beside an inconclusive call; the fits are too rough.
Biological target: Beta-lactamase (Escherichia coli (strain K12)) (UniProt P00811)
UniProt P00811, sequence (P00811 whole entry, looked up): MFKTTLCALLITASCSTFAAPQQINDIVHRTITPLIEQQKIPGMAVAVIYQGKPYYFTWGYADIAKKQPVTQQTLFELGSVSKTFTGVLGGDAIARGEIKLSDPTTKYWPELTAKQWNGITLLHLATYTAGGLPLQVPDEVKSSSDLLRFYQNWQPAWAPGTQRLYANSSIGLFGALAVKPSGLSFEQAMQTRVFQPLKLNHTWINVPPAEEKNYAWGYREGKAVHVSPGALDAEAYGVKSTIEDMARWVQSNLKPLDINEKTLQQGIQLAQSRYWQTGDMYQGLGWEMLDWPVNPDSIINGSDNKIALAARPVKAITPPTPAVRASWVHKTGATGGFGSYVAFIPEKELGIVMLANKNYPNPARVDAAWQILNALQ
Experiment: qHTS Inhibitors of AmpC Beta-Lactamase (assay with detergent); note: nearly all actives have a fitted effect of over 25% in size
Details: AmpC hydrolysis of nitrocefin, absorbance 480 nm, 0.01% Triton; series mostly up to 114 µM
Procedure, shortened: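 AmpC (5.3 nM in the dispensed reagent) in 20 mM phosphate pH 7.0 with 0.01% (detergent screen) or 0.0001% Triton X-100 was preincubated with compounds for 15 min at room temperature. Nitrocefin was then added from an 800 uM solution, and hydrolysis was followed at 480 nm.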
Potency is the fitted concentration of half-maximal effect; tags give direction and shape of the fitted curve.

**Q.** Which Potency does the source give for O=C(c1ccccc1-c1ccccc1)N1CCOCC1 here?
**A.** inconclusive [inhibitor, full curve, poor fit]

**Q.** O=C(C1CCCN(S(=O)(=O)c2ccc(Br)cc2)C1)N1CCN(Cc2ccccc2)CC1 (centres undefined) was tested. Which Potency did it give?
**A.** inactive

**Q.** CCOC(=O)c1cnc2c(C)cccc2c1NCCCN1CCOCC1 was tested. Which Potency did it give?
**A.** inconclusive [inhibitor, full curve, poor fit]

**Q.** How did the Potency turn out when O=C1OCCC1Sc1nc2ccccc2n1-c1ccccc1 (centres undefined) was run?
**A.** inconclusive [inhibitor, full curve, poor fit]

**Q.** Which Potency does the source give for O=C(CSc1nnc(-c2ccc(Cl)cc2)n1Cc1ccco1)c1cccs1 here?
**A.** inactive

**Q.** For CCOc1cccc(NC(=O)c2ccc(S(=O)(=O)N(C)C)cc2)c1, which Potency is on record?
**A.** inconclusive [inhibitor, full curve, poor fit]

**Q.** C=CCn1c(N)c(C(=O)NCCC2=CCCCC2)sc1=S was tested. Which Potency did it give?
**A.** inconclusive [inhibitor, partial curve, poor fit]

**Q.** With COC(=O)c1ccccc1NC(=O)Nc1ncccc1C as the molecule, how does the Potency read?
**A.** inconclusive [inhibitor, single point]

**Q.** For O=C1C(=Cc2ccco2)C(=O)c2ccccc21, which Potency is on record?
**A.** inconclusive [inhibitor, full curve, poor fit]

**Q.** For S=C(NCCc1ccncc1)Nc1cccc2ccccc12, which Potency is on record?
**A.** inactive

**Q.** With O=C(Oc1ccccc1Cl)c1ccccc1P(=O)(O)O as the molecule, how does the Potency read?
**A.** inconclusive [inhibitor, full curve, poor fit]

**Q.** With CNCC(O)Cn1c(C(F)(F)F)nc2ccccc21 (centres undefined) as the molecule, how does the Potency read?
**A.** inconclusive [inhibitor, full curve, poor fit]

**Q.** O=C(Nc1ccc(F)cc1F)c1cc2nc3c(c(C(F)(F)F)n2n1)CCCC3 was tested. Which Potency did it give?
**A.** inconclusive [inhibitor, full curve, poor fit]

**Q.** For Cc1c(OCC(=O)NCCCn2ccnc2)ccc2c3c(c(=O)oc12)CCC3, which Potency is on record?
**A.** inactive

**Q.** With O=C(CCCn1cnc([N+](=O)[O-])n1)Nc1ccc(Cl)c(Cl)c1 as the molecule, how does the Potency read?
**A.** inconclusive [inhibitor, partial curve, poor fit]

**Q.** How did the Potency turn out when CC1(C)C=Cc2cc3ccc(=O)oc3cc2O1 was run?
**A.** inactive

**Q.** For CCN(c1ccc(OC)cc1)S(=O)(=O)c1csc(C(N)=O)c1, which Potency is on record?
**A.** inactive

**Q.** With CC(=O)OCc1nc2ccccc2s1 as the molecule, how does the Potency read?
**A.** inconclusive [inhibitor, partial curve, poor fit]

**Q.** CCCC(=O)NC(=S)Nc1cccc(C(C)=O)c1 was tested. Which Potency did it give?
**A.** inconclusive [inhibitor, full curve, poor fit]

**Q.** For Cn1c(=O)c([N+](=O)[O-])c(NCc2ccccc2)c2ccccc21, which Potency is on record?
**A.** inconclusive [inhibitor, full curve, poor fit]

**Q.** Cc1cccc(NC(=O)C(C)N2C(=O)c3ccccc3S2(=O)=O)n1 (centres undefined) was tested. Which Potency did it give?
**A.** inconclusive [inhibitor, partial curve, poor fit]

**Q.** With CN(C)Cc1cc(O)c(CN(C)C)cc1O as the molecule, how does the Potency read?
**A.** inactive

**Q.** For COc1cccc(CN(C)Cc2c(O)ccc3ccccc23)c1, which Potency is on record?
**A.** inconclusive [inhibitor, partial curve]

**Q.** O=C1CCCC(=O)C1CS(=O)(=O)c1ccccc1 was tested. Which Potency did it give?
**A.** inactive

**Q.** With Cc1cc(C(=O)CSc2nnc(-c3ccncc3)n2-c2ccccc2)c(C)n1C as the molecule, how does the Potency read?
**A.** inconclusive [inhibitor, full curve, poor fit]

**Q.** With CCOC(=O)c1ccc(-n2c(N)c(C(=O)NCC3CCCO3)sc2=S)cc1 (centres undefined) as the molecule, how does the Potency read?
**A.** inconclusive [inhibitor, partial curve]

**Q.** For O=C1C(=O)N(CCCn2ccnc2)C(c2cccc(Br)c2)/C1=C(\O)c1ccc2c(c1)OCCO2 (centres undefined), which Potency is on record?
**A.** inconclusive [inhibitor, full curve, poor fit]

**Q.** How did the Potency turn out when Cc1csc(NC(=O)C2CC(=O)N(c3ccc4c(c3)OCCO4)C2)n1 (centres undefined) was run?
**A.** inactive

**Q.** COC(=O)C1=C(C)N(CCCC(=O)O)C(=O)NC1c1cccs1 (centres undefined) was tested. Which Potency did it give?
**A.** inconclusive [inhibitor, full curve, poor fit]

**Q.** With Cc1ccc(S(=O)(=O)Nc2cccc(-c3ccc(N4CCCCCC4)nn3)c2)c(C)c1 as the molecule, how does the Potency read?
**A.** inconclusive [inhibitor, full curve, poor fit]

**Q.** For O=C(c1cc(Cl)ccc1[N+](=O)[O-])n1cnc2ccccc21, which Potency is on record?
**A.** inactive

**Q.** Which Potency does the source give for CN(C)c1ccnc2sc(C(=O)NCc3ccccc3)c(N)c12 here?
**A.** inactive

**Q.** With COc1ccccc1-c1cc2ccccc2[nH]1 as the molecule, how does the Potency read?
**A.** inconclusive [inhibitor, partial curve]

**Q.** How did the Potency turn out when CC(C)(C)n1nnnc1CN1C2CCC1CC(NC(=O)Nc1ccccc1)C2 (centres undefined) was run?
**A.** inconclusive [inhibitor, full curve, poor fit]

**Q.** How did the Potency turn out when COc1ccccc1N1CCN(C(=O)c2cc3c(s2)-c2ccccc2OC3)CC1 was run?
**A.** inconclusive [inhibitor, partial curve, poor fit]

**Q.** Cc1ccccc1OCc1nc2ccccc2c(=O)n1N was tested. Which Potency did it give?
**A.** inactive

**Q.** CCc1cccc(NC(=O)c2cc(S(=O)(=O)N3CCCCCC3)cn2C)c1 was tested. Which Potency did it give?
**A.** inactive

**Q.** How did the Potency turn out when Cc1ccc(C)c(N2CCN(CC3CC=CCC3)CC2)c1 (centres undefined) was run?
**A.** inconclusive [inhibitor, full curve, poor fit]

**Q.** With CC(C)Cc1ccc(C#N)c(SCC(N)=O)n1 as the molecule, how does the Potency read?
**A.** inconclusive [inhibitor, full curve, poor fit]

**Q.** With CCOC(=O)C1(Cc2ccc(OC)cc2)CCN(C(=O)c2cc(C)nn2C)CC1 as the molecule, how does the Potency read?
**A.** inconclusive [inhibitor, partial curve, poor fit]

**Q.** With CC(=O)c1ccc2c(c1)C1C=CCC1C(C(=O)O)N2 (centres undefined) as the molecule, how does the Potency read?
**A.** inconclusive [inhibitor, full curve]

**Q.** Which Potency does the source give for O=C(c1cc2nc(-c3ccc(F)cc3)cc(C(F)(F)F)n2n1)N1CCOCC1 here?
**A.** inconclusive [inhibitor, full curve, poor fit]

**Q.** Which Potency does the source give for CCOC(=O)C1CCCN(c2c(NCCN3CCCCC3CC)c(=O)c2=O)C1 (centres undefined) here?
**A.** inconclusive [inhibitor, full curve, poor fit]

**Q.** CCC(=O)Nc1ccc(S(=O)(=O)N2CCc3ccccc3C2)cc1 was tested. Which Potency did it give?
**A.** inconclusive [inhibitor, full curve, poor fit]

**Q.** For CCOc1ccc(CNC(=O)CCCOc2cc(=O)n(C)c3ccccc23)cc1, which Potency is on record?
**A.** inconclusive [inhibitor, partial curve]

**Q.** For Cc1ccccc1C(=O)Nc1nc2c(C)csc2c(=O)s1, which Potency is on record?
**A.** inactive

**Q.** With O=c1[nH]c2ccccc2n2c(-c3ccccc3)nnc12 as the molecule, how does the Potency read?
**A.** inconclusive [inhibitor, full curve, poor fit]

**Q.** How did the Potency turn out when CN1CCc2c(sc3c2c(=O)n(-c2ccc(Cl)cc2)c2nncn32)C1 was run?
**A.** inconclusive [inhibitor, single point]

**Q.** Which Potency does the source give for O=C1NC2(CCCCO2)CO1 (centres undefined) here?
**A.** inconclusive [inhibitor, full curve, poor fit]

**Q.** How did the Potency turn out when COCCC(=O)N1CCC(Oc2ccc(C(=O)N(C)C3CCCCC3)cc2)CC1 was run?
**A.** inconclusive [inhibitor, full curve, poor fit]

**Q.** For CN(c1ccccc1C(=O)Nc1ccccc1C(=O)NCc1ccco1)S(C)(=O)=O, which Potency is on record?
**A.** inconclusive [inhibitor, full curve, poor fit]

**Q.** How did the Potency turn out when Clc1ccccc1CN(Cc1ccccc1)C(c1cccs1)c1nnnn1C1CCCC1 (centres undefined) was run?
**A.** inactive

**Q.** CC(Cc1ccccc1)C(=O)NCc1ccccn1 (centres undefined) was tested. Which Potency did it give?
**A.** inconclusive [inhibitor, partial curve]

**Q.** Cc1ccc(C(=O)N2CCCCC2)cc1S(=O)(=O)N1CCCCCC1 was tested. Which Potency did it give?
**A.** inactive

**Q.** Which Potency does the source give for O=C(OCn1nnc2ccccc2c1=O)C1CCCCC1 here?
**A.** inconclusive [inhibitor, full curve, poor fit]

**Q.** c1ccc2c(c1)[nH]c1cnccc12 was tested. Which Potency did it give?
**A.** inactive

**Q.** Which Potency does the source give for CN1C(=O)N(C)C(=O)C(CCc2ccncc2)(Cc2ccc3c(c2)OCO3)C1=O here?
**A.** inconclusive [inhibitor, single point]

**Q.** With O=C(C1CCN(S(=O)(=O)c2ccc(-n3cnnn3)cc2)CC1)N1CCN(c2ccccc2)CC1 as the molecule, how does the Potency read?
**A.** inconclusive [inhibitor, partial curve]

**Q.** With CC(=O)c1c(C)[nH]c(C(=O)OCC(=O)Nc2cc(C(F)(F)F)ccc2N2CCOCC2)c1C as the molecule, how does the Potency read?
**A.** inconclusive [inhibitor, full curve, poor fit]

**Q.** Which Potency does the source give for C=CCn1c(SCC)nc2sc3c(c2c1=O)CCc1ccccc1-3 here?
**A.** inconclusive [inhibitor, partial curve, poor fit]

**Q.** Which Potency does the source give for O=C1N=C(N2CCC(Cc3ccccc3)CC2)S/C1=C/c1cn[nH]c1-c1ccccc1 here?
**A.** inactive

**Q.** Which Potency does the source give for COc1ccc(S(=O)(=O)Nc2ccccc2OC)cc1C here?
**A.** inconclusive [inhibitor, partial curve, poor fit]

**Q.** Cc1ccc(-n2c(=S)[nH]c3[nH]ncc3c2=O)cc1 was tested. Which Potency did it give?
**A.** inactive

**Q.** With O=C(Oc1ccc(C(=S)N2CCOCC2)cc1Cl)c1ccccc1F as the molecule, how does the Potency read?
**A.** inconclusive [inhibitor, partial curve, poor fit]

**Q.** With COc1ccc([C@]23Cc4ccccc4C(O2)c2c(c4ccc(OC)cc4oc2=O)O3)cc1 as the molecule, how does the Potency read?
**A.** inconclusive [inhibitor, full curve, poor fit]

**Q.** How did the Potency turn out when O=C(COc1ccccc1)N1CCCC1 was run?
**A.** inactive

**Q.** With CC1CCCC(C(=O)O)N1C(=O)CCSSCCC(=O)N1C(C)CCCC1C(=O)O (centres undefined) as the molecule, how does the Potency read?
**A.** inconclusive [inhibitor, single point]

**Q.** With Cc1cc(=O)oc(C)c1C(=O)NCCN1CCOCC1 as the molecule, how does the Potency read?
**A.** inconclusive [inhibitor, full curve]

**Q.** Which Potency does the source give for COc1ccc(Br)cc1/C=N/NC(=O)c1ccc(OC)c(OC)c1 here?
**A.** inactive

Reference: PubChem BioAssay AID485294 (National Center for Advancing Translational Sciences (NCATS), 2010)
